Data reported in PubChem BioAssay AID1768 (National Center for Advancing Translational Sciences (NCATS), 2009).
Out of some 270,000 compounds screened, about 620 (0.23%) were called active. The shares of active, inactive and inconclusive entries below differ from those in the screen. Calls follow the shape of the dose curve; as a rule, active = well fitted inhibition curve with a large enough effect in the polarisation, with a control signal flat (not every such curve was filed as active); inconclusive = small, poorly fitted or top-dose-only effect, or effect the other way, or a change in a side signal; inactive = no such curve, though single readings can be large or run the other way; the % refers to the polarisation. Potencies of inconclusive entries are doubtful fits and often do not repeat. “Side channel” marks fits to a control or component signal instead of the main read-out.

What follows are compounds tested against Menin (Homo sapiens) (UniProt O00255) (assay: qHTS Assay for Inhibitors Targeting the Menin-MLL Interaction in MLL Related Leukemias: Competition With Texas Red Labeled MLL-derived Mutant Peptide). Conditions: fluorescence polarization; FP activity change, negative = inhibition: at 61.6 µM (top of the series).
Chain of UniProt O00255 (O00255 whole entry, looked up): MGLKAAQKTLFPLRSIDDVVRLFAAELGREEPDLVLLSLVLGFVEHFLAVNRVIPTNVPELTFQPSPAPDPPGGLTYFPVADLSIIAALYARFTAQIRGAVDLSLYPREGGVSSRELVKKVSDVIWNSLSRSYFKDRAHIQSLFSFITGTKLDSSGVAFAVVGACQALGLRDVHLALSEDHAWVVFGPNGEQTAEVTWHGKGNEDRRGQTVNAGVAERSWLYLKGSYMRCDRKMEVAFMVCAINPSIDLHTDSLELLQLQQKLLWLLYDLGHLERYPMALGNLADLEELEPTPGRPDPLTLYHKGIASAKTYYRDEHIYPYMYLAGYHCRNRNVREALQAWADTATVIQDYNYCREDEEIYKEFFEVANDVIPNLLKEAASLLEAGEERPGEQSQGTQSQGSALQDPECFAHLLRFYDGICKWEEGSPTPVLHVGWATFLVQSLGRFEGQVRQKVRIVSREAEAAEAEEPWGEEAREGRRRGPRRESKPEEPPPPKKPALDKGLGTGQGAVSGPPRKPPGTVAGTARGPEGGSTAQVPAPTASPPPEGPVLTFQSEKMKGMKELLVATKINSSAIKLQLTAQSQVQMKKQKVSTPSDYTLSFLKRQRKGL

For FP activity change, negative = inhibition in this document: % of control where 0% means no effect.
Potency is read from the fitted curve at half-maximal effect; tags tell the direction and shape of the fitted curve or compound fluorescence and quenching.

Potency, inconclusive:
C#CCn1c(S(=O)(=O)Cc2ccc(F)cc2)nc(-c2ccccc2)c1-c1ccccc1 3.16 µM [inhibitor, single point]
COc1cc(C(=O)NCCNC(=O)c2cc(OC)c(C)c(OC)c2)cc(OC)c1C 39.8 µM [fluorescent, side channel, single point]
CCOC(=O)c1c(-c2ccc(F)cc2)csc1NC(=O)C1CCCO1 (stereo not drawn) 20 µM [fluorescent, side channel, partial curve]
Cc1ccc(S(=O)(=O)Nc2ccc(-c3nnc(SCc4ccccc4Cl)o3)cc2)cc1 8.91 µM [quencher, side channel, full curve]
O=Cc1c(-c2ccccc2)cc2oc3ccccc3cc1-2 8.91 µM [inhibitor, full curve, poor fit]
OCCNc1nc(SCc2ccccc2)nc2sc3c(c12)CCC3 12.6 µM [quencher, side channel, partial curve]
CCOc1ccc2nc(NC(=O)C3CCN(C(=O)c4ccco4)CC3)sc2c1 39.8 µM [inhibitor, single point]
CCN1CCN(CC(=O)n2c3c(c4ccccc42)CC(C)CC3)CC1 (stereo not drawn) 39.8 µM [inhibitor, single point]
O=S(=O)(Nc1nc2ccccc2s1)c1ccc(Br)s1 39.8 µM [quencher, side channel, single point]
CCC(C)c1ccc(NC(=S)NN2CCOCC2)cc1 (stereo not drawn) 39.8 µM [inhibitor, partial curve]
Cc1cc(C)nc(N2CCN(C(=O)c3ccc(S(=O)(=O)N4CCCCCC4)cc3)CC2)n1 7.94 µM [fluorescent, side channel, partial curve, poor fit]
COCCNC(=S)N1CCC(C(=O)c2ccc(C)cc2)CC1 25.1 µM [fluorescent, side channel, single point]
O=C(CN1CCN(Cc2ccc(Cl)cc2)CC1)N1CCc2ccccc21 31.6 µM [fluorescent, side channel, partial curve]
Cc1ccc(NC(=O)CSc2nnc(-c3ccncc3)s2)cc1 39.8 µM [inhibitor, single point]
O=S(=O)(c1ccccc1)n1ccc2ccccc21 35.5 µM [quencher, side channel, single point]
Cc1ccc(S(=O)(=O)/N=C(/c2ccc(F)cc2)N(C)C)cc1 39.8 µM [inhibitor, single point]
COc1ccc(N2CCC(CNC(=O)Nc3cccc(OC)c3)C2)cc1 (stereo not drawn) 14.1 µM [quencher, side channel, partial curve]
Cc1cc(C(=O)NC(C)c2ccncc2)no1 (stereo not drawn) 39.8 µM [inhibitor, single point]
COc1ccc(C(=O)/C=C2\NCC3c4ccccc4CCN3C2=O)cc1 (stereo not drawn) 12.6 µM [inhibitor, partial curve]
COc1cccc(/C=N/NC(=O)C(=O)Nc2ccccc2OC(F)(F)C(F)F)c1O 17.8 µM [quencher, side channel, partial curve]
CS(=O)(=O)c1ccc(NCC2CCCO2)c([N+](=O)[O-])c1 (stereo not drawn) 7.94 µM [quencher, side channel, full curve]
Cc1c(C(=O)CN2CCN(c3ccccc3)CC2)c2ccccc2n1C 14.1 µM [fluorescent, side channel, partial curve]
Cc1ccc(NC(=O)C2CCN(S(=O)(=O)c3cccc4nonc34)CC2)cc1 39.8 µM [fluorescent, side channel, single point]
O=C(CCCCn1c(=O)c2ccccc2n(CC(=O)NC2CCCC2)c1=O)NCc1ccco1 3.98 µM [quencher, side channel, single point]
CC(Cc1ccccc1)C(=O)NCCc1c[nH]c2ccccc12 (stereo not drawn) 28.2 µM [quencher, side channel, single point]
O=C(NNC(=S)NCCc1ccccc1)c1ccc(Br)s1 35.5 µM [quencher, side channel, single point]
COc1ccc([N+](=O)[O-])cc1NC(=O)CCS(=O)(=O)c1ccc(Br)cc1 28.2 µM [quencher, side channel, single point]
Cc1ccc(S(=O)(=O)Nc2c(C(=O)O)[nH]c3ccccc23)cc1C 25.1 µM [quencher, single point]
O=C(Nc1ccccc1)/C(=C\c1cccs1)NC(=O)c1ccccc1 39.8 µM [inhibitor, single point]
Cc1ccc(OP(=O)(Nc2c(C)n(C)n(-c3ccccc3)c2=O)Oc2ccc(C)cc2)cc1 20 µM [fluorescent, side channel, partial curve]
CC(C)(C)c1cc(C(C)(C)C)cc(S(=O)(=O)CCc2ccccn2)c1 14.1 µM [fluorescent, side channel, partial curve]
O=C(O)COc1ccc(Nc2ccccc2)cc1 35.5 µM [quencher, side channel, single point]
O=C(N/N=C/c1ccc(OCc2ccc(F)cc2)cc1)c1ccccc1 22.4 µM [fluorescent, side channel, partial curve]
CC(=O)Nc1ccc(S(=O)(=O)N2CCN=C2SCc2cccc(C)c2)cc1 11.2 µM [quencher, side channel, partial curve]
COc1cccc(CN(C)CC2CCCN(CCc3ccccc3C)C2)c1 (stereo not drawn) 7.08 µM [inhibitor, full curve, poor fit]
Fc1ccc(Cn2nnnc2C(c2cccs2)N2CCN(C3CCCCC3)CC2)cc1 (stereo not drawn) 22.4 µM [inhibitor, partial curve]
COc1cccc(NC(=O)Cc2nc(-c3ccccc3)sc2-c2ccc(C)cc2)c1 3.16 µM [quencher, side channel, full curve]
O=C(CSc1nnc(CNc2ccc(Cl)cc2)o1)Nc1nc2ccccc2s1 31.6 µM [inhibitor, single point]
C/C(=N\NC(=O)c1cc(Br)ccc1O)c1cccs1 35.5 µM [quencher, side channel, single point]
Cc1nc(CSc2nsc(/C=C/N(C)C)c2C#N)cs1 17.8 µM [quencher, side channel, partial curve]
CCn1c(=S)sc2c(=O)n(CC(=O)Nc3ccc(OC)cc3)c(C)nc21 28.2 µM [quencher, single point]
CCNC(=S)N(CCc1c(C)[nH]c2ccccc12)Cc1cc(OC)c(OC)c(OC)c1 39.8 µM [quencher, side channel, single point]
Cc1ccccc1NCC(=O)N/N=C/c1c[nH]c2ccccc12 14.1 µM [quencher, side channel, partial curve]
CCOc1ccc(S(=O)(=O)Nc2ccccc2C(=O)NCc2ccco2)cc1 28.2 µM [quencher, side channel, single point]
CCCCSc1nc2sc3c(c2c(=O)n1-c1ccc(C)cc1)CCN(C)C3 8.91 µM [fluorescent, side channel, partial curve]
O=C(Nc1ccc(O)cc1)C1CC=CCC1 (stereo not drawn) 39.8 µM [inhibitor, single point]
NC(=S)N/N=C/c1ccc(-c2ccc([N+](=O)[O-])cc2)o1 28.2 µM [quencher, side channel, partial curve]
CS(=O)(=O)Cc1ccc(C(=O)Nc2cccc(-c3nc4ccccc4[nH]3)c2)cc1 15.8 µM [quencher, side channel, partial curve]
O=C(CCCN1C(=O)/C(=C\c2ccccc2)SC1=S)Nc1ccc(C(=O)O)cc1 28.2 µM [quencher, side channel, single point]
Cc1cnc(CN(C)Cc2nc(Cc3cccc(C(F)(F)F)c3)no2)[nH]1 15.8 µM [inhibitor, partial curve]

FP activity change, negative = inhibition, inactive:
C[N+]1(CC2COC(c3ccccc3)(C3CCCCC3)O2)CCCCC1 (stereo not drawn) -20.1%
CN1CCN(c2ccc(NC(=S)NC(=O)c3cccc4c(Cl)cccc34)cc2)CC1 -7.31%
Cc1ccc(NC(=O)CS(=O)CC(=O)Nc2ccc(N3CCOCC3)cc2)cc1Cl (stereo not drawn) 24.9%
C/C=C1\COC(C(=O)NCc2ccccn2)(C(F)(F)F)C=C1C=C(C)C (stereo not drawn) -12.4%
CCC(=O)N1CCc2cc(Br)cc(S(=O)(=O)CC(=O)OC)c21 -6.97%
CCOC(=O)c1ccc(C#Cc2ccc3c(c2)C(C)(C)CCS3)nc1 1.46%
CC(C)CO/N=C1/C[C@@H](O)[C@@H](O)[C@@H]2[C@@H]3C(=O)N(C[C@@H]4CCCO4)C(=O)[C@H]3CC[C@H]12 20.8% [at 11.7 µM]
COCCOC(=O)c1sc2nc[nH]c(=O)c2c1C -0.689%
